Laboratory results reported in PubChem BioAssay AID445 (National Center for Advancing Translational Sciences (NCATS), 2006).
Among all 110,000 compounds or so, about 40 (0.04%) were called active. The shares of active, inactive and inconclusive entries below differ from those in the screen. Calls follow the shape of the dose curve; as a rule, active = well fitted curve in the direction sought with a large enough effect in the signal ratio (not every such curve was filed as active); inconclusive = small, poorly fitted or top-dose-only effect, or a change in a side signal; inactive = flat fitted curve, though single readings scatter; the % refers to the signal ratio. A potency beside an inconclusive call is a rough fit, not a confirmed value.

assay: IkB Signaling; conditions: ABC-DLBCL IkBa-CBG/CBR dual luciferase ratio (green luciferase fused to IkBa over red control in OCI-Ly3 lymphoma cells), 4 h; IkBa stabilization activation: at 57.1 µM (top of the series), scaled: untreated 0%, proteasome inhibitor 100% unless noted;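 as to IkBa stabilization activation: 0% = basal untreated cells and 100% = reference inhibitor full response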
Method in brief: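 Curves were fitted separately to fusion (green), unfused (red) and ratio luminescence, then classed by r2, magnitude and activity. Cells: OCI-Ly3, 4 h compound plus doxycycline at 37C; 10 uM MG-132 defined full response.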
Potency is read from the fitted curve at half-maximal effect.

SMILES	IkBa stabilization activation	Potency
Cc1cccc(NC(=O)CSc2nccn2-c2cccc(Cl)c2)c1C	inconclusive: 1.02% [signal inhibitor]	–
COc1ccc(C(=O)Nc2noc3ccccc23)cc1	–	inconclusive: 25.1 µM [signal inhibitor, single point]
Cc1ccc(NC(=O)c2sc(-n3nc(C)c(Cc4ccc5c(c4)OCO5)c3C)nc2C)cc1C	inconclusive: 1.4% [signal inhibitor]	–
CCOc1cc(C2c3c(-c4ccccc4O)n[nH]c3C(=O)N2Cc2cccnc2)ccc1O (stereo unspecified)	inconclusive: 1.15% [signal inhibitor]	–
COc1ccc(C2CC(=O)Nc3ccccc3S2(=O)=O)cc1OC (stereo unspecified)	inconclusive: 13.2% [signal inhibitor]	–
O=C(Nc1ccc(F)c(Cl)c1)c1ccc2c(=O)n3c(nc2c1)CCCCC3	inconclusive: 4.27% [signal inhibitor]	–
Cn1nnnc1SCC(=O)Nc1ccccc1N1CCOCC1	inactive	–
CC(C)N(CCC(=O)c1ccc2ccccc2c1)Cc1ccccc1	inconclusive: -0.686% [signal inhibitor]	inconclusive: 7.94 µM [signal inhibitor, partial curve]
COc1ccc(Cn2c(=O)oc3ccc(C)cc32)cc1OC	inconclusive: 6.12% [signal inhibitor]	–
CCS(=O)(=O)N1CCc2cc(C(=O)Nc3cc(C(F)(F)F)ccc3Cl)ccc21	inconclusive: 2.7% [signal inhibitor]	–
COc1ccc(Cl)cc1NC(=O)CSc1nc(-c2ccco2)cc(C(F)(F)F)n1	inconclusive: 6.25% [signal inhibitor]	–
CCCCN(c1ccccc1)S(=O)(=O)c1ccc2c(c1)CC(C)N2C(=O)C1CC1 (stereo unspecified)	inconclusive: -0.751% [signal inhibitor]	–
CCc1ccccc1Nc1nc2ccccc2n2cnnc12	–	inconclusive: 15.8 µM [signal inhibitor, partial curve]
CCOC(=O)C1CCN(C(c2cccs2)c2sc3nc(C)nn3c2O)CC1 (stereo unspecified)	–	inconclusive: 25.1 µM [rising, partial curve]
Cc1ccccc1N1CCN(c2ncnc3c2cnn3Cc2ccc(Cl)cc2)CC1	inactive	–
Cc1cccc(C)c1OC(=O)CSc1nnc(-c2cccs2)o1	inconclusive: 1.32% [signal inhibitor]	–
COc1ccc(OC)c(NS(=O)(=O)c2ccc3[nH]c4c(c3c2)CCCCC4)c1	inconclusive: 1.46% [signal inhibitor]	–
Cc1ccc(C(C)NC(=O)c2cc(C)oc2C)cc1 (stereo unspecified)	inconclusive: 5.47% [signal inhibitor]	–
O=C(NCCc1cn2ccsc2n1)c1cccs1	inactive	–
Cc1ccc2c(c1)nnn2C1CCN(S(=O)(=O)c2cccc(S(=O)(=O)N(C)C)c2)CC1	inconclusive: 5.86% [signal inhibitor]	–
N#Cc1c(-c2cccs2)cc(-c2ccccn2)nc1N	inactive	–
O=C1c2[nH]nc(-c3ccccc3O)c2C(c2cccc(Cl)c2)N1Cc1cccnc1 (stereo unspecified)	inconclusive: 8.6% [signal inhibitor]	–
CCOC(=O)c1sc(NC(=O)CSc2n[nH]c(-c3ccccc3)n2)c(C#N)c1C	inconclusive: -4.57% [signal inhibitor]	–

SMILES	IkBa stabilization activation	Potency
Cc1cc(=O)oc2cc(OC(C)C(=O)N3CCCc4ccccc43)ccc12 (stereo unspecified)	inactive	–
CCOC(=O)c1[nH]c(C)c(CN(CCc2ccccc2)S(C)(=O)=O)c1C	inactive	–
O=C(c1ccc(CSc2nc3ccncc3n2Cc2cccc(F)c2)cc1)N1CCCCC1	inconclusive: 1.74% [signal inhibitor]	–
CN(Cc1ccccc1)Cc1nc2c(c(=O)n(C)c(=O)n2C)n1CCCc1ccccc1	inconclusive: 1.89% [signal inhibitor]	–
CCOC(=O)c1c(C)oc2ccc(N(C(=O)c3ccncc3)S(=O)(=O)c3ccc(Br)cc3)cc12	inconclusive: -2.07% [signal inhibitor]	–
CC1=C(c2ccc(C(C)C)cc2)S(=O)(=O)NC1=NCc1ccccc1Br	inconclusive: 1.77% [signal inhibitor]	–
Cc1nn(Cc2ccc(Cl)cc2)c(C)c1NC(=O)c1noc2c1CCCCC2	inconclusive: -0.66% [signal inhibitor]	–
CC(=O)c1nc2ccccc2n1S(=O)(=O)c1ccc(C)cc1	inconclusive: 10.1% [signal inhibitor]	–
Cc1cccc(NC(=O)Cn2c(=O)nc(-c3ccccc3)c3ccccc32)c1C	inactive	–
CN1CCN(c2nc(-c3ccoc3)nc3ccccc23)CC1	inactive: -0.968% [at 11.4 µM, scaled: untreated 0%, proteasome inhibitor 100%]	–
CCOc1ccc(CCNC(=O)Cn2ncc3c(=O)oc4ccc(C)cc4c32)cc1	inconclusive: 3.36% [signal inhibitor]	–
CCc1ccc(NC(=O)Nc2cccs2)cc1	inactive	–
COc1ccc(-c2nn(C)c(=O)c3ccccc23)cc1CNC(=O)c1ccco1	inactive	–
Cc1ccc(CN2CCN(CC(=O)NCc3ccc(Cl)cc3)C2=O)cc1	inconclusive: -0.309% [signal inhibitor]	–
CCN(CCNC(=O)Nc1ccc(Cl)cc1)c1ccccc1	inconclusive: 5.71% [signal inhibitor]	–
COc1ccc2c(c1OC)C(=O)N(c1cccc(C(F)(F)F)c1)C2	inactive	–
N=c1n(CCN2CCCCC2)c2ccccc2n1CC(O)COc1ccc(Cl)cc1Cl (stereo unspecified)	inconclusive: -12.6% [signal inhibitor]	–
CCN(C1CCCCC1)S(=O)(=O)c1ccc(S(=O)(=O)NCc2ccncc2)cc1	inconclusive: 9% [signal inhibitor]	–
CC1CC(C)(C)NC(=S)S1 (stereo unspecified)	inactive	–
CCc1cccc(C)c1NC(=O)CSc1nc2ccccc2nc1N1CCOCC1	inconclusive: -2.64% [signal inhibitor]	–
COc1ccc(Cn2c(SCc3ccc(C(=O)NCc4cccs4)cc3)nc3cccnc32)cc1	inconclusive: -1.13% [signal inhibitor]	–
COc1ccccc1CN1C(=O)CN(C2CCCCCC2)C(=O)C1c1ccc(C)cc1 (stereo unspecified)	inconclusive: 2.28% [signal inhibitor]	–
